About 450 (0.94%) of roughly 48,000 compounds were called active. Another 19% or so got no clear call; they are omitted. The call rests on the fitted dose curve; in most records, active means well fitted inhibition curve with a large enough effect; inconclusive means small, poorly fitted or top-dose-only effect; inactive means no such curve, though single readings can be large or run the other way. This is one part of the list.
Assay: Primary qHTS for Identification of Small Molecule Inhibitors of Huntingtin Promoter Activity; further: nearly all actives have a fitted effect of over 50% in size
Conditions: HEK293 HTT promoter firefly luciferase reporter (activity 0% = vehicle and -100% = no light), 24 h; series mostly up to 57.5 µM; activity change, negative = inhibition: at the top concentration
Summary of the method: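 HEK293 cells carrying firefly luciferase reporters were seeded at 2,500 per well in Opti-MEM and cultured for 24 h. They were then treated with compounds at up to 57.5 uM final for 24 h at 37 degrees C before Dual-Glo luminescence readout.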

Activity change, negative = inhibition, inactive:
CCN(CC)CCCNC(=O)c1ccc2nc(CCc3ccccc3)oc2c1 0%, Cc1ccc(S(=O)(=O)c2c(C)nn(-c3ccccc3)c2OC(=O)c2ccccc2F)cc1 -13.9%, COC(=O)N[C@H](C(=O)N[C@@H](Cc1ccccc1)[C@@H](O)CN(Cc1ccc(-c2ccccn2)cc1)NC(=O)[C@@H](NC(=O)OC)C(C)(C)C)C(C)(C)C, CCOC(=O)c1ccccc1NC(=O)Cn1c(=O)n(Cc2ccccc2)c(=O)c2c(C)c(C)sc21 -10.8%, O=C1C(c2[nH]c3ccccc3c2O)=Nc2ccccc21 -4.93%, CCN(c1ccc(Cl)cc1)S(=O)(=O)c1nnc(NC(=O)C(C)C)s1 0.885%, Cc1ccc(-n2ncc(C(=O)N3CCN(Cc4ccccc4)CC3)c2C2CCN(C(=O)OC(C)(C)C)CC2)c(C)c1 -8.78%, CC(C)(C)OC(=O)N1CCC(c2c(C(=O)NCc3ccco3)cnn2-c2ccc(F)cc2)CC1 -22.1%, Cc1ccc(C)c(S(=O)(=O)c2nnn3c2nc(NCc2ccc4c(c2)OCO4)c2sccc23)c1 -1.51%, CN(C)c1ccc(NC(=O)Cn2c(SCc3ccccc3F)nc3cccnc32)cc1 -20.7%, COC(=O)Nc1ccc(-c2nc(N3CCOCC3)c3cnn(C4CCN(C(=O)OC)CC4)c3n2)cc1 -30.8%, CN(C)c1ccc(C(CNS(=O)(=O)c2ccc(Br)cc2)N2CCOCC2)cc1 (stereo not given) -15.8%, O=c1c2sc3ccccc3c2n(Cc2ccccc2F)c(=O)n1CCc1ccccc1 17.5%, O=C(c1ccc2c(Cl)c3c(nc2c1)CCCC3)N1CCN(c2cccc(Cl)c2)CC1 -14.3%, CCc1ccc(-c2ccc(C(=O)Oc3ccc(Br)cc3)cc2)nc1 6.57%, Cc1c(C)n(C)c2ccc(C(=O)NCCCN3CCCCC3)cc12 -14.9%, COc1ccc(NC(=O)C2=C(C)Nc3nc(SCc4ccccc4)nn3C2c2cc(OC)ccc2OC)cc1 (stereo not given) -15.6%, Cc1ccc(Cn2ccc(NC(=O)c3cc(-c4ccc(Cl)c(Cl)c4)on3)n2)cc1 11.6% [at 11.5 µM], COc1ccc(CNc2ncnc3c2c(-c2ccccc2)cn3-c2ccccc2)cc1 -22.8%, CCN(CC)S(=O)(=O)c1ccc(C(=O)N=c2sc3cccc(OC)c3n2C)cc1 -8.64%, Cc1c(-c2cccc(NC(=O)C(C)(C)C)c2)nc2ncccn12 5.46%, Cc1ccc(-c2nc(SCc3ccc(Br)cc3)n3[nH]c(=O)cc3n2)cc1 -8.95%, COc1ccccc1CNC(=O)c1cccc(Nc2nc3ccccc3n3nnnc23)c1 -8.68%, Cc1ccc2nc(N3CCN(c4cccc(C)c4C)CC3)c3nnnn3c2c1 -9.86%, CCC1CN(C(=O)N2CCC(C(=O)NCc3cccs3)CC2)c2cc(C)ccc2O1 (stereo not given) -29.6%
